Reference: ChEMBL document CHEMBL1201862, “PubChem BioAssay data set” (2004)

tested on: NCI-H322M; assay: growth of human tumour cells (NCI), 48 h

Row | Structure (SMILES) | GI50
1 | Cc1c2cnccc2c(C)c2c1c1ccccc1n2CCOC(=O)c1ccccc1 | inactive: 9.14 µM
2 | Cc1cc2c(cc1Cl)SC(NNC(=O)c1ccccc1)=NS2(=O)=O | inactive: > 10 µM
3 | COC(=O)NC1(NC(=O)OC)NC(=O)c2cc(OC)c(OC)c(OC)c2N1 | inactive: 32 µM
4 | Cc1ccc(C(C)C)c(OCC(=O)N/N=C/c2c[nH]c3ccc(Br)cc23)c1 | inactive: 2.07 µM
5 | CN(C)c1nc(N(C)C)sc(=O)n1 | inactive: > 100 µM
6 | CN(CCc1ccccn1)C(=S)N/N=C/c1ccccn1 | active: 0.0559 µM
7 | OCC(O)COc1c(Cl)ccc(Cl)c1Cl (stereo not drawn) | inactive: > 100 µM
8 | O=C(c1ccccc1)N1CCN(C(=S)NC2CCCCC2)C1=S | inactive: 21.6 µM
9 | CN(C)CCNC(=O)c1ccc2nc3c(nc2c1)C(=O)c1ccccc1-3 | inactive: 40.2 µM
10 | CCc1c[n+]2c(cc1C1=CN3c4ccccc4[C@]45CCN6C/C(=C/CO)[C@H](C[C@H]64)[C@@H]([C@@H]1O)[C@H]35)-c1[nH]c3ccccc3c1CC2 | inactive: > 50 µM
11 | COC(=O)/C=C(C)/C=C\COC1CCCCO1 (stereo not drawn) | inactive: > 100 µM
12 | COc1cc(/C=C/C2=NN(c3cccc(S(=O)(=O)O)c3)C3(C2)SCC(=O)N3c2nc3ccccc3s2)cc(OC)c1OC (stereo not drawn) | inactive: 85.1 µM
13 | CC(C)CCC[C@@H](C)C1CCC2[C@@H]3CCC4C[C@@H](NS(C)(=O)=O)CC[C@]4(C)C3CC[C@@]21C (stereo partly drawn) | inactive: > 100 µM
14 | COc1ccc(-n2sc3ncccc3c2=O)cc1 | inactive: > 100 µM
15 | N#CC(c1ccccc1)N1CCCN(C(C#N)c2ccccc2)C1c1ccccc1O (stereo not drawn) | inactive: > 100 µM
16 | CN(N)/N=N/c1[nH]cnc1C(N)=O | inactive: > 42.1 µM
17 | CC(=O)OC1C(COC(N)=O)OC(n2c(-c3ccc(C)cc3)cc(-c3ccccc3)c(C#N)c2=O)C(OC(C)=O)C1OC(C)=O (stereo not drawn) | inactive: > 100 µM
18 | CCC(=O)CC(=O)CCC(=O)Nc1cc(C)ccc1C | inactive: > 100 µM
19 | NC1CC(=O)c2sccc21 (stereo not drawn) | inactive: > 100 µM
20 | Cc1ccc(NC(=O)CCCC(=O)CC(=O)c2ccc(Br)cc2)cc1 | inactive: > 100 µM
21 | CC1CC(C)C(=O)C(C(=O)CC2CC(=O)NC2=O)C1 (stereo not drawn) | inactive: > 100 µM
22 | O=C1C(Cl)C(c2ccc([N+](=O)[O-])cc2)N1n1cnc2ccccc2c1=O (stereo not drawn) | inactive: 21.5 µM

Row | Structure (SMILES) | GI50
23 | CC1CC[C@@]2(OC1)OC1C[C@H]3[C@@H]4CC[C@H]5CC(OC6OC(CO)C(OC7OC(CO)C(O)C(O)C7O)C(O)C6O)CCC5(C)[C@H]4CCC3(C)C1[C@@H]2C (stereo partly drawn) | inactive: 9.02 µM
24 | CN1C(=O)NC(=O)/C(=C\Nc2ncccn2)C1=O | inactive: > 100 µM
25 | O=C1C(C(c2ccc([N+](=O)[O-])cc2)N2CCOCC2)=C(O)C(c2ccccc2)N1c1ccccc1 (stereo not drawn) | inactive: > 10 µM
26 | O=C(Nc1nc2ccc([N+](=O)[O-])cc2s1)C(=O)C(C(=O)c1ccccc1F)C1OC(=O)c2ccccc21 (stereo not drawn) | inactive: 37.8 µM
27 | CC1OC2(CC(OCc3ccccc3)C1OCc1ccccc1)OCCO2 (stereo not drawn) | inactive: > 100 µM
28 | CC1(C)CC(/C=C2/OC(=O)c3ccccc32)=C(C(N)=O)C(=O)O1 | inactive: > 100 µM
29 | O=C1/C(=C/c2ccc(Cl)cc2)CCC/C1=C\c1ccc(O)c(CN2CCCCC2)c1 | inactive: 18 µM
30 | CC(=O)NNc1nc(-c2ccc([N+](=O)[O-])cc2)c(C#N)c(=O)n1C | inactive: 21 µM
31 | Cc1ccc(NNc2cc(=O)[nH]c(=O)[nH]2)cc1Cl | inactive: > 100 µM
32 | Clc1ccc(OCc2nnc3n2N=C(c2ccccc2)CS3)c(Cl)c1 | inactive: > 10 µM
33 | CCCNC(=S)N/N=C/c1cccc(C)n1 | inactive: 39.7 µM
34 | O=C1C=CC=C/C1=C1\N=C(c2ccccc2OCC(=O)c2ccc(Br)cc2)SS1 | inactive: > 100 µM
35 | CCOC(=O)N1CCC(=C2c3ccc(Cl)cc3CCc3cccnc32)CC1 [LORATADINE] | inactive: 11.1 µM
36 | COc1ccc(/C=C2/N/C(=N\N=C/C(O)C(O)C(O)C(O)CO)NC2=O)cc1 (stereo not drawn) | inactive: > 100 µM
37 | CCOP(=O)(OCC)C(Nc1ccc(Cl)cc1)c1ccc(F)cc1 (stereo not drawn) | inactive: 27.8 µM
38 | CC/C(C)=C1\CCC(CN(C)C)C1=O (stereo not drawn) | inactive: > 100 µM
39 | COc1ccc(C2ON(c3ccccc3)CC=C2C)cc1 (stereo not drawn) | inactive: > 100 µM
40 | Cc1cc2c(cc1C)[n+]([O-])c(C(=O)/C=C/c1ccccc1[N+](=O)[O-])c(C)[n+]2[O-] | inactive: > 100 µM
41 | COc1ccccc1NC(=O)CC(=O)NNCC(=O)Nc1nnc(-c2ccccc2)o1 | inactive: > 100 µM
42 | CCN1C[C@]2(C)CC[C@H](OC)C34C1C([C@H](OC(C)=O)[C@@H]32)[C@@]1(OC)C[C@H](OC)[C@H]2C[C@@H]4[C@@H]1[C@H]2O | inactive: > 100 µM
43 | C[C@@]12CCCC(=O)N1[C@@H](CO)C(c1ccccc1)O2 (stereo partly drawn) | inactive: > 100 µM
44 | CC1=NC2(CCCCC2)N(Cl)C(=O)C1SC#N (stereo not drawn) | inactive: 18.5 µM

Row | Structure (SMILES) | GI50
45 | O=C(O)C1(C(=O)O)CC1 | inactive: > 100 µM
46 | COc1ccc(N2C(=O)[C@H]3[C@H]4CC(C(C)(C)C)CC[C@H]4c4c(n(C)c5ccccc45)[C@H]3C2=O)cc1 (stereo partly drawn) | inactive: > 100 µM
47 | O=C1CN2CCN(CC2)CC(=O)Nc2ccc(cc2)S(=O)(=O)c2ccc(cc2)NC(=O)CN2CCN(CC2)CC(=O)Nc2ccc(cc2)S(=O)(=O)c2ccc(cc2)N1 | inactive: > 100 µM
48 | Cc1ccc(S(=O)(=O)N/N=C2\C=CC3(CC2)C(=O)N(I)c2ccccc23)cc1 (stereo not drawn) | inactive: > 100 µM
49 | O=[N+]([O-])c1ccc(C2Nn3c(nnc3-c3cccc([N+](=O)[O-])c3)S2)cc1 (stereo not drawn) | inactive: > 100 µM
50 | CC(C)C(Sc1nc(-c2ccccc2)c(-c2ccccc2)[nH]1)C(=O)NNC(=S)Nc1ccccc1 (stereo not drawn) | inactive: 23.3 µM
51 | CCOC(=O)C(NC(=O)Nc1ccc(Cl)cc1)(OC)C(F)(F)F (stereo not drawn) | inactive: 83.6 µM
52 | CCOC(=O)c1c(-c2ccccc2)c(C)cn1C | inactive: > 10 µM
53 | CCC/C=C1\CCC(CN(C)C)C1=O (stereo not drawn) | inactive: 30.5 µM
54 | CCCCCCCCCCCCCCCc1ccc(OCC(O)CO)cc1 (stereo not drawn) | inactive: > 100 µM
55 | O=C(NCCCNCCN1C(=O)c2cccc3cc([N+](=O)[O-])cc(c23)C1=O)c1cc(-c2ccccc2)nc2ccccc12 | inactive: 2.58 µM
56 | Cc1n[nH]c(=O)n1/N=C/c1cccc(Cl)c1 | inactive: > 100 µM
57 | Sc1nnc(SCc2ccccc2Cl)c2nc[nH]c12 | inactive: > 100 µM
58 | Cc1ccc(S(=O)(=O)N/N=C2/CCCOC2)cc1 | inactive: > 100 µM
59 | CNC(=O)N(CCC#N)[C@H]1CCCC[C@@H]1N(C(=O)NC)c1ccccc1 | inactive: > 100 µM
60 | ClCCCCCc1c2nc(c(CCCCCCl)c3ccc([nH]3)c(CCCCCCl)c3nc(c(CCCCCCl)c4ccc1[nH]4)C=C3)C=C2 | inactive: > 100 µM
61 | COc1ccc(/C=C2\N=C3Sc4c([nH]cnc4=O)N3C2=O)cc1 | inactive: > 100 µM
62 | CCN(CC)CCNc1ccc([N+](=O)[O-])c2nc3ccccc3c(N)c12 | active: 0.277 µM
63 | Cc1cccc2c1CC1(Cc3c(C)cccc3C1=O)C2=O | inactive: > 100 µM
64 | COc1ccc(C(O)(c2ccccc2)c2nccc3ccccc23)cc1 (stereo not drawn) | inactive: 8.89 µM
65 | CCOC(=O)C1Cc2c(ccc(OC)c2OC)C(=O)C1N (stereo not drawn) | inactive: > 100 µM
66 | Clc1ccc(C2=Nc3ccccc3SC(c3cccs3)C2)cc1 (stereo not drawn) | inactive: 15.3 µM

Row | Structure (SMILES) | GI50
67 | CC(C)(C)O/C=C1/C(=O)OC2C[C@@H](O[Si](C)(C)C(C)(C)C)CC12 (stereo partly drawn) | inactive: > 100 µM
68 | COC1C=C(NCC2(CO)CCC2)N=C(N)N1 (stereo not drawn) | inactive: > 100 µM
69 | O=c1c2ccccc2nc(-c2ccccc2)n1/N=C/c1ccccc1[N+](=O)[O-] | inactive: > 100 µM
70 | CCCCCCCC(=O)OCC1OC(n2cc(F)c(=O)[nH]c2=O)C(NC(=O)OCc2ccccc2)C(OC(=O)CCCCCCC)C1O (stereo not drawn) | inactive: 52.6 µM
71 | CCCCCCCCCCCCCC(=O)OCC1OC(=O)C(O)C1O (stereo not drawn) | inactive: > 100 µM
72 | CC(=O)OC1COC(Nc2nc(NCc3ccccc3)n(C)c(=O)c2N=O)C(OC(C)=O)C1OC(C)=O (stereo not drawn) | inactive: > 10 µM
73 | OCC1OC(n2nc(-c3ccccc3)nc2-c2cnccn2)C(O)C(O)C1O (stereo not drawn) | inactive: > 100 µM
74 | Clc1ccc2c(c1)CC1C[N+]3=C(CCCC3)C1=C2 (stereo not drawn) | inactive: > 100 µM
75 | C=C(C)C1CC2(C)C(C)CC(O)CC2C(OC(=O)C=C(C)C)C1O (stereo not drawn) | inactive: > 100 µM
76 | O=c1c2ccccc2n2c(-c3ccccc3O)nnc2n1-c1ccccc1 | inactive: > 100 µM
77 | Cc1cc(N(CCC#N)CCC#N)ccc1/C=C(\NC(=O)/C=C/c1ccccc1)NC(=O)Nc1ccccc1C | inactive: > 100 µM
78 | CC(=O)O[C@H]1CC[C@@]2(C)C(=CC[C@@H]3[C@@H]2CC[C@]2(C)NC(=O)/C(=C\c4ccccc4)C[C@@H]32)C1 | inactive: 16.9 µM
79 | COC(=O)C1(O)c2ccccc2N=C2C1CCN2C (stereo not drawn) | inactive: > 100 µM
80 | OCC1OC(NCCNCCNC2OC(CO)C(O)C(O)C2O)C(O)C(O)C1O (stereo not drawn) | inactive: > 100 µM
81 | O=C1C2[C@@H](C(=O)N1c1ccc(Br)cc1)C13C(=CC2([N+](=O)[O-])[C@@H]2C(=O)N(c4ccc(Br)cc4)C(=O)[C@@H]21)c1ccccc1N3c1ccccc1 (stereo partly drawn) | inactive: > 100 µM
82 | O=[N+]([O-])c1ccc(C2c3c(O)nc(O)nc3Oc3nc(O)nc(O)c32)cc1 | inactive: > 100 µM
83 | Cc1ccccc1NC(=O)Cc1csc(N/N=C2\C(=O)Nc3ccccc32)n1 | inactive: 29.2 µM
84 | COC1(CC[C@H](C)COC2OC(CO)C(O)C(O)C2O)O[C@H]2C[C@H]3[C@@H]4CC=C5C[C@@H](OC6OC(CO)C(O)C(OC7OC(CO)C(O)C(O)C7O)C6OC6OC(C)C(O)C(O)C6O)CC[C@]5(C)[C@H]4CC[C@]3(C)[C@H]2[C@@H]1C (stereo partly drawn) | inactive: 3.54 µM
85 | CCOC(=O)c1nc2ccc(C(F)(F)F)cc2nc1Nc1ccc(F)cc1 | inactive: > 100 µM
86 | O=C1C2C=CC(n3[nH]c(=O)n(Cc4ccccc4)c3=O)CC2C(=O)N1c1ccc(Br)cc1 (stereo not drawn) | inactive: > 100 µM
87 | O=C(O)CCSC(=O)Nc1ccccc1 | inactive: > 100 µM
88 | CC1=C[C@@H]2Cc3occc3C(C)(C)[C@@H]2CC1 | inactive: 33.3 µM

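48-hour exposure; five concentrations; linearly interpolated endpoints. GI50 = concentration required for 50% inhibition of growth.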 Activity calls are given as the source filed them. Cut-off read from the data, not from the text of the source: active = GI50 up to about 1.1 µM and inactive = higher.
